Laboratory results reported in publication PMC4336329 (PLoS ONE, 2015).
Screen size: about 310,000 compounds; about 14,000 (4.5%) showed an effect of 50% or more. The effect is printed as a negative number. This is one part of the list.

These compounds were tested against human ether-à-go-go-related gene (hERG) potassium channel (human, UniProt Q12809) (assay: primary screen, population patch clamp on CHO cells stably expressing hERG).
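Also: peak tail current of the secondary pulse compared with the same well before compound.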

Chain of human ether-à-go-go-related gene (hERG) potassium channel (Q12809 whole entry, looked up): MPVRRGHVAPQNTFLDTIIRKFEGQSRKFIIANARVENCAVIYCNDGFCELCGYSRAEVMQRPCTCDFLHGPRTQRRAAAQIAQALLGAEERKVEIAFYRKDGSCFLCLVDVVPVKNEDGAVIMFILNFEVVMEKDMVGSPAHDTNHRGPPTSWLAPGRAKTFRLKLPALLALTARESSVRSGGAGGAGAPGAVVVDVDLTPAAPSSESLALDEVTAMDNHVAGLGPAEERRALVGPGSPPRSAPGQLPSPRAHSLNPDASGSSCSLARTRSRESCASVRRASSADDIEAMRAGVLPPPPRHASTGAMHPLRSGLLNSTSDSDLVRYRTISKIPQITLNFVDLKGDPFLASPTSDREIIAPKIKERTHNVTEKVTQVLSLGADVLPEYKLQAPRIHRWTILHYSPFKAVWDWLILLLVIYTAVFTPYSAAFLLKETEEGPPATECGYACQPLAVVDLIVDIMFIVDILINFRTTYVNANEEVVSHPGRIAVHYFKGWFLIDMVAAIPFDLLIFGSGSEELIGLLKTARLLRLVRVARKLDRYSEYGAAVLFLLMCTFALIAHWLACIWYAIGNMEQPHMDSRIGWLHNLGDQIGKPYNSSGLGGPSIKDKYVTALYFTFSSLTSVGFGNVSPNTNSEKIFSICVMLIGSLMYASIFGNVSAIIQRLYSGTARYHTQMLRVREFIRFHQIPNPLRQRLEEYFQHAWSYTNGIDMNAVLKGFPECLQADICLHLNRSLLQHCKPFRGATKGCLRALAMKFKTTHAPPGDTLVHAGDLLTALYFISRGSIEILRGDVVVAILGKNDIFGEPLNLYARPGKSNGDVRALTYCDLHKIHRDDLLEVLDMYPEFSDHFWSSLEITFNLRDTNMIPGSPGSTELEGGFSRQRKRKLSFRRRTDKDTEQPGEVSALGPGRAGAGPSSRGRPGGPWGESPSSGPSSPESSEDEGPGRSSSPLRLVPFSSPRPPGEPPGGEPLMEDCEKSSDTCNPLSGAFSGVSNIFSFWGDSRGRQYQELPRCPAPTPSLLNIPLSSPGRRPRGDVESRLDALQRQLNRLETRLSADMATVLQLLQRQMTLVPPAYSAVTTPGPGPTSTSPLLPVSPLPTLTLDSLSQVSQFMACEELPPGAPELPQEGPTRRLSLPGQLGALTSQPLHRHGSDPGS

SMILES	hERG current change (%, negative = inhibition) at 10uM
Cc1cc(C)n2nc(C(=O)Nc3ccn(Cc4ccccc4C)n3)cc2n1	12.2%
CC1(C)CC(=O)C2=C(C1)NC(=O)C21C(C(=O)OC(C)(C)C)=C(N)Oc2ccc(Br)cc21 (centres unmarked)	-13.1%
O=C(O)CCCC(=O)N1CC(=O)Nc2ccccc21	4.5%
O=C(Nc1ccc(N2CCOCC2)cc1)C1CC(=O)N(c2ccccc2)C1 (centres unmarked)	0.539%
COc1cc(CNC(=O)c2ccccc2NC(=O)C2=C(C)OCCS2)cc(OC)c1OC	9.03%
CCCCn1c(N)c(N(CCOC)C(=O)CSCc2ccccc2C)c(=O)[nH]c1=O	-8.23%
Cc1nn(Cc2ccccc2)c(Cl)c1C(=O)NCc1ccc(C)n1C	-22.1%
Cc1ccc(-c2cc(-c3ccco3)c3c(N)c(C(=O)NN)oc3n2)cc1	6.81%
O=C(/C=C/c1ccco1)N(Cc1cccc(F)c1)C1CCS(=O)(=O)C1 (centres unmarked)	-29.3%
COc1cc(OC)c(OC)cc1CNC(=O)c1cc(S(=O)(=O)N2CCOCC2)ccc1F	-9.79%
COC(=O)CCC(NC(=O)c1cc(-c2ccc3c(c2)OCCO3)oc1C)C(=O)OC (centres unmarked)	8.3%
COc1ccc(C(=O)OCCCc2cc3ccccc3c(=O)o2)cc1	-24.8%
Cc1cccc(NC(=O)c2ccccc2NC(=O)C(C)(C)C)n1	-0.982%
O=C(Oc1ccccc1)N1CCN(c2ccc(F)cc2)CC1	-7.66%
Nc1nc(-c2ccc(Br)cc2)c(S(=O)(=O)c2ccccc2)s1	0.913%
Cc1nn(-c2ccccc2)c(C)c1/C=N/NC(=O)CSc1nnc(-c2ccccc2)n1-c1ccc(Cl)cc1	5.46%
COc1ccc(-n2nc(C(=O)NCC(=O)NCc3cccc(F)c3)c3ccccc3c2=O)cc1Cl	-0.0515%
COCc1cc(CN2CCCC(C(=O)Nc3cccc(-n4cnnn4)c3)C2)ccc1OC (centres unmarked)	-6.58%
COc1ccc(C2=NOC(C(=O)NCc3ccco3)C2)cc1OC (centres unmarked)	-9.78%
Fc1ccc(N2CCN(Cc3cnc(Cl)s3)CC2)cc1	-3.52%
COc1cccc(-n2sc3c(c2=S)-c2cc(OC)ccc2NC3(C)C)c1	2.45%
COc1ccc(CNC(=O)c2ccc(CS(=O)Cc3ccc(Cl)cc3)o2)cc1 (centres unmarked)	-84.6%

SMILES	hERG current change (%, negative = inhibition) at 10uM
Cc1ccc(C)c(C(=O)COC(=O)c2cccc(N3C(=O)c4c(C)nc5ccccc5c4C3=O)c2)c1	30.2%
COc1ccc(-c2c([C@H]3[C@H]4C=CC[C@@H](C)[C@@H]4C(=O)N3Cc3ccccc3)ccc3ccccc23)cc1OC	14.7%
CCOc1ccccc1C(=O)Oc1cc(C)[nH]c(=O)c1[N+](=O)[O-]	6.9%
C=CCn1c(CCNC(=O)C(C)(C)C)nc2ccccc21	12.7%
COc1cccc(CNC(=O)c2ccc(NC(=O)C3=CSCCO3)cc2)c1	5.45%
COc1ccc(Cl)cc1NC(=S)NC(=O)c1ccc2c(c1)OCO2	11.1%
CC(NS(=O)(=O)c1ccc(OCC(=O)NCc2ccncc2)cc1)c1ccccc1 (centres unmarked)	15%
COc1ccc(NC(=O)CN(c2ccc(OC)cc2)S(=O)(=O)c2c(C)nn(C)c2C)cc1	5.28%
Cc1ccccc1C(=O)Nc1nnc(CC(=O)N/N=C/c2ccncc2)s1	14.1%
COCCCN(C(=S)NC(=O)C(C)(C)C)c1c(N)n(Cc2ccccc2)c(=O)[nH]c1=O	18.2%
O=C1N/C(=N\N=C\c2cccs2)SC1Cc1ccc(Cl)cc1 (centres unmarked)	-8.96%
CCn1c(SCC(=O)C(C)(C)C)nnc1-c1ccccn1	8.27%
O=C(COc1ncnc2ccccc12)Nc1ccccc1[N+](=O)[O-]	6.5%
O=C1Nc2ccccc2C12Nc1ccccc1S2 (centres unmarked)	8.88%
Cc1csc(SCC(=O)NC23CC4CC(CC(C4)C2)C3)n1	-20.5%
CCOC(=O)c1ccc(NC(=O)CC2C(=O)OCCN2CC)cc1 (centres unmarked)	-2.18%
CCC(=O)N1CCN(c2ccc(Cl)cc2NC(=S)NC(=O)c2ccco2)CC1	-0.88%
O=S(=O)(NCCc1ccccn1)c1ccc(OC(F)(F)F)cc1	14.5%
NS(=O)(=O)c1ccc(-c2ccc(/C=C3\C(=O)Nc4ccccc43)o2)cc1	11%
O=C(COc1ccc2ccccc2c1)Nc1ccncc1	1.27%
Cc1cc(Cl)ccc1NC(=O)Cn1cncn1	14.3%
COc1ccccc1C(=O)NCCn1cc(SCC(=O)NCC2CCCO2)c2ccccc21 (centres unmarked)	-16.1%
